Source: PubChem BioAssay AID504832 (National Center for Advancing Translational Sciences (NCATS), 2011)
Screen size: about 310,000 compounds; about 18,000 (5.8%) were called active. Inconclusive means that the source gave no clear call. Such entries were picked first, then a sample of the others. The call rests on the fitted dose curve; in most records, active means well fitted inhibition curve with a large enough effect; inconclusive means small, poorly fitted or top-dose-only effect, or another doubt; inactive means no such curve, though single readings can be large or run the other way. Potencies of inconclusive entries are left out as doubtful fits.

test: Primary qHTS for delayed death inhibitors of the malarial parasite plastid, 48 hour incubation; conditions: P. falciparum luciferase growth in erythrocytes; series mostly up to 28.7 µM; activity change, negative = inhibition: at the top concentration
Summary of the method: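 A one-generation exposure of luciferase-tagged malaria parasites in RPMI 1640/Albumax erythrocyte culture, 37 C and 5% CO2. Inhibition is inferred from decreased luminescence after adding detection reagent.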
On the % scale 0 is the no-effect control and ±100 the full control effect; potency means the concentration at half of the fitted maximal effect; tags describe the fitted curve by direction and shape.

SMILES	Potency	activity change, negative = inhibition
CCCCN(C)CCNC(=O)c1nn(-c2ccc(OC)cc2)c(=O)c2c1c1ccccc1n2C	inconclusive [inhibitor, single point]	
COC(=O)N1CCN(c2ccc(Cl)c(Cl)c2)CC1		inactive: 25%
COc1ccccc1CC(=O)N1CCN(c2cccc(C(F)(F)F)c2)CC1	inconclusive [inhibitor, partial curve, poor fit]	
CCOc1ccc(N2CC(C(=O)Nc3cccc(S(=O)(=O)N4CCCC4)c3)CC2=O)cc1 (stereo not drawn)	inconclusive [inhibitor, partial curve]	
CCOc1ccccc1OCCCC(=O)N1CCN(S(=O)(=O)c2ccc(C)cc2)CC1	inconclusive [inhibitor, single point]	
Cc1nc(Cl)c(C(=O)NCCc2ccccc2)c(C)c1[N+](=O)[O-]		inactive: -14.3%
c1ccc(CN2CCN(c3nc(-c4ccccn4)nc4ccccc34)CC2)cc1	active: 1.65 µM	
N#C/C(=C\c1cccnc1)C(=O)Nc1cccc2ccccc12	inconclusive [inhibitor, partial curve]	
Cc1ccccc1OCC(=O)N1N=C(C(F)(F)F)CC1(O)C(C)(C)C (stereo not drawn)	active: 10.4 µM	
C=C1CCN([C@@H](C)C(=O)NCc2ccc(OC)cc2)S(=O)(=O)c2ccccc21	inconclusive [inhibitor, single point]	
COC(=O)c1sc(C(C)(C)C)cc1CS(=O)(=O)c1ccc(Cl)cc1	inconclusive [inhibitor, full curve, poor fit]	
COc1ccccc1C(CC(=O)Nc1nccs1)c1ccco1 (stereo not drawn)	active: 2.94 µM	
O=S(=O)(c1ccc(Cl)cc1)n1ccc2cccnc21	inconclusive [inhibitor, single point]	
O=[N+]([O-])c1ccc(O)c(/C=N/Nc2nn[nH]n2)c1	inconclusive [inhibitor, single point]	
CCOc1ccc(C2C(C#N)=C(N)Oc3cc(O)ccc32)cc1OCC (stereo not drawn)	inconclusive [inhibitor, single point]	
CCOC(=O)Nc1ccc2c(CN3CCN(S(=O)(=O)c4ccccc4F)CC3)cc(=O)oc2c1	active: 9.28 µM	
CCN(CC)S(=O)(=O)c1ccc(C)c(NC(=S)NC2CCCCC2)c1	active: 14.7 µM	
Cc1ccc(C(=O)NCCc2nnc3ccc(NCc4ccc5c(c4)OCO5)nn23)cc1	inconclusive [inhibitor, single point]	
CN1CCC(N(C)C(=S)NC(=O)c2cc(-c3cccc(Br)c3)nc3ccccc23)CC1	inconclusive [inhibitor, single point]	
COc1cc2c(cc1OC)C(c1ccc(Cl)cc1)=NCC2		inactive: -4.97%
CCCCC(CC)CN1C(=O)/C(=C/c2ccncc2)SC1=S (stereo not drawn)	inconclusive [inhibitor, single point]	
Cc1ccc(N(CC(=O)NCc2ccc(Cl)cc2)S(C)(=O)=O)cc1	inconclusive [inhibitor, partial curve, poor fit]	

SMILES	Potency	activity change, negative = inhibition
CC(=O)c1ccc(N2CCN(C(=S)Nc3ccccc3C(F)(F)F)CC2)cc1	inconclusive [inhibitor, single point]	
Cn1c(N)c(C(=O)COC(=O)[C@@H]2CCCN2S(=O)(=O)c2ccc(Cl)cc2)c(=O)n(C)c1=O		inactive: -23.5%
Cc1ccc(NS(=O)(=O)c2ccccc2Cl)c2c1CC(C)(C)O2	inconclusive [inhibitor, full curve, poor fit]	
CCN(CC(=O)Nc1ccc(NC(C)=O)cc1)C(=O)CCCN1C(=O)c2ccccc2C1=O	inconclusive [inhibitor, partial curve, poor fit]	
CC1(C)Cc2c(sc3c2c(=N)n(Cc2ccco2)c(=O)n3CC(=O)Nc2ccc(Cl)cc2)CO1	inconclusive [inhibitor, single point]	
COc1cc(OC)cc(C(=O)Nc2cccc3nc(C)ccc23)c1		inactive: -16.5%
O=[N+]([O-])c1ccc(Sc2nnnn2-c2ccccc2)nc1	inconclusive [inhibitor, partial curve, poor fit]	
O=C(NCC(=O)N1CCOCC1)c1ccccc1		inactive: 56.4%
O=C(Cc1csc(-c2ccc(Cl)cc2)n1)Nc1cccc(S(=O)(=O)NC2=NCCC2)c1	inconclusive [inhibitor, single point]	
CC(C)c1cc(CNC(=O)C2CCC(=O)N(CCc3ccc(Cl)cc3)C2)on1 (stereo not drawn)	inconclusive [inhibitor, partial curve, poor fit]	
COc1ccc(NS(=O)(=O)c2cccc3nonc23)c(OC)c1	inconclusive [inhibitor, single point]	
Cc1nnc(-c2cccc(Br)c2)c2cn(-c3ccccc3Cl)nc12	inconclusive [inhibitor, single point]	
COc1ccc([C@@H]2[C@@H]3C(=O)N(C(C)(C)C)C(=O)[C@@H]3[C@]3(C)C(=O)N(c4cccc(Cl)c4)C(=O)N23)cc1	inconclusive [inhibitor, single point]	
O=C(Nc1nc(-c2ccc(F)c(F)c2)cs1)c1ccc(OCC2CCCO2)cc1 (stereo not drawn)		inactive: -13.3%
CCC(=O)Nc1cc(ON=C(C)C)cc([N+](=O)[O-])c1		inactive: 42.6%
CC(C)(C)n1nc2c(c1NC(=O)COc1ccc(Cl)cc1)CS(=O)(=O)C2		inactive: 0%
CC1(OC(=O)CCc2ccccc2)C(=O)C=C2C=C(c3ccc(C#N)cc3)N(CCc3c[nH]c4ccccc34)C=C2C1=O (stereo not drawn)	active: 11.7 µM	
O=c1c2cnn(-c3ccccc3)c2nc(-c2cccs2)n1-c1ccc(Cl)cc1	inconclusive [inhibitor, single point]	
O=C(CCc1ccccc1)NCCSCc1c(F)cccc1Cl		inactive: -14.4%
COc1ccc(OC)c(C(c2c(C)[nH][nH]c2=O)c2c(C)[nH][nH]c2=O)c1	inconclusive [inhibitor, single point]	
Nc1nc(-c2ccco2)c(-c2ccco2)s1	inconclusive [inhibitor, single point]	
